Key:
[1] = biological target: T1, human IL-1 type 1 receptor (IL-1R1) (human, UniProt P14778 18-336, limits assumed); assay: surface plasmon resonance
T1 construct: SPR reagent; also called IL-1RI; interleukin-1 type I receptor
T1 sequence (looked up): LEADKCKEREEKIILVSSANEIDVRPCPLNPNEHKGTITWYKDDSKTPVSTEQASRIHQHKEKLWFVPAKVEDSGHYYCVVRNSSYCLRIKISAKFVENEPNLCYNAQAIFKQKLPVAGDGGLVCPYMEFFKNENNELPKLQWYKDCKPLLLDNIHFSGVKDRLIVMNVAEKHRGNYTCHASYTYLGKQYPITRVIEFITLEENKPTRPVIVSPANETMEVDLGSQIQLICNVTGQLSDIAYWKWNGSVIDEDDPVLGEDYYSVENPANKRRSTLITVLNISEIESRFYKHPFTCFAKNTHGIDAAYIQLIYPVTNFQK

[2] = biological target: T2, IL-1R1 in fresh rat whole blood (rat, UniProt Q02955 20-576); assay: cell-based or functional assay
T2 sequence (looked up): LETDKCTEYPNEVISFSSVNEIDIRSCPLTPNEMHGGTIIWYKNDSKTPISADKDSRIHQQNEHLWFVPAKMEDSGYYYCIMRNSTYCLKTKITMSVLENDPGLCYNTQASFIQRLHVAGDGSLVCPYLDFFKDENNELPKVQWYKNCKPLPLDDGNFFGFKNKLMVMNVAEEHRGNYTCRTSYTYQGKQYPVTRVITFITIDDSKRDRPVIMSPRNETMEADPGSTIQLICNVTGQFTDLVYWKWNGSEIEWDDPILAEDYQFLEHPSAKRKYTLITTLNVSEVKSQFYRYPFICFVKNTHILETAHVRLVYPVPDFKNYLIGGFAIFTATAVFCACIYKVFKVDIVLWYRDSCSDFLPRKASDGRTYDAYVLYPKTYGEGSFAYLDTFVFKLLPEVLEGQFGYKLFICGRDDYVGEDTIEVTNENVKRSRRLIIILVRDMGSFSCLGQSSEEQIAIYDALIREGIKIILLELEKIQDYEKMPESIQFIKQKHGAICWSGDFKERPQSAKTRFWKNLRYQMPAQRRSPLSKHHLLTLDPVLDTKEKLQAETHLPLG

Kd [1]: 7.43 pM | koff [1]: 1.8e-05 s⁻¹ | kon [1]: 2.46e+06 M⁻¹ s⁻¹ | IC50, whole blood IL-6 release assay in rats [2]: 0.399 mg/L
B1: ALTA-2530 recombinant human interleukin 1 receptor antagonist (rhIL-1Ra; anakinra) (ligand)
chain: not shown
notes: mature; also called OSP-101
